Screen size: about 110,000 compounds; about 230 (0.21%) showed an effect of 50% or more. The list shows a part of the results.
Each compound was assayed against DPAP1 (Plasmodium falciparum, UniProt Q8IIJ9) (assay: primary screen, percent inhibition; read by cleavage of a fluorogenic dipeptide substrate; higher = more effect of the substance).
Parameters: species or system P. falciparum D10 trophozoite lysates; single well
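Note: 30 min substrate incubation versus DMSO and 10 µM JCP410 controls.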

DPAP1, sequence (Q8IIJ9 whole entry, looked up): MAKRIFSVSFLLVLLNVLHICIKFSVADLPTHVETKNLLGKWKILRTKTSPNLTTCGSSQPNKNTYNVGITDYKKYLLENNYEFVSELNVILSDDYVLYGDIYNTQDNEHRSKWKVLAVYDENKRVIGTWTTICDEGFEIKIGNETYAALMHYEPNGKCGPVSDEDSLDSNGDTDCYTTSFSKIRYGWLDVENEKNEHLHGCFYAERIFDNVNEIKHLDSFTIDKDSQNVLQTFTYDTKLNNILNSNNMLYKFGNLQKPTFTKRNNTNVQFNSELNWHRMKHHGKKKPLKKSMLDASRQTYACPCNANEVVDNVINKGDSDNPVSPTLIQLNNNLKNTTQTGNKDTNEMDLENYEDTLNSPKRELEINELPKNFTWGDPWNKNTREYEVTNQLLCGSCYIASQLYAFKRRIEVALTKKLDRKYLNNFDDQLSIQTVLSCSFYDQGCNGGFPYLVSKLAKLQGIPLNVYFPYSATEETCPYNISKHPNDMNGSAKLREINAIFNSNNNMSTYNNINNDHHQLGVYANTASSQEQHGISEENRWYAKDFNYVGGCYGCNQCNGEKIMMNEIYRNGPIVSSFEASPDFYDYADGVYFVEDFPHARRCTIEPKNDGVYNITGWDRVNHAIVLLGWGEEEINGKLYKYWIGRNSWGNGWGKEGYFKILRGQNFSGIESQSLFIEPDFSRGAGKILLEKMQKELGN

Going from `O=c1cc(-c2ccccc2)c2cc(Cl)c3c(c2o1)CN(Cc1ccco1)CO3` to `Oc1oc2ccccc2c2nc(-c3ccccc3)nc1-2`, the “% Inhibition @ 10 uM” value rises from -0.808% to 2.47%.

Compared with `O=C(Nc1ccn(-c2ccccc2)n1)c1ccco1`, `O=C(c1ccco1)n1nc(-c2ccc(Cl)cc2)nc1NCc1ccco1` is higher in “% Inhibition @ 10 uM” value: -1.05% for the first, 2.31% for the second.

Compared with `C/C(=N\O)c1nsc(Nc2ccccc2)n1`, `Cc1sc2ncnc(SCC(=O)Nc3nc(-c4ccccc4)ns3)c2c1C` is lower in “% Inhibition @ 10 uM” value: 3.96% for the first, 3% for the second.

Going from `CC(NC(=O)C1CCN(c2nnc(-n3cccc3)s2)CC1)c1ccccc1` (centres unmarked) to `O=C(CC(c1ccccc1)c1ccccc1O)N1CCOCC1` (centres unmarked), the “% Inhibition @ 10 uM” value rises from -0.522% to 0.47%.

Going from `COc1ccc(CN2CCN(c3ccccc3C)CC2)cc1Br` to `COc1cccc(N2CCN(C3CCN(Cc4ccccc4)CC3)CC2)c1`, the “% Inhibition @ 10 uM” value rises from -5.41% to -0.0648%.

First: O=c1c2cnn(-c3ccccc3)c2ncn1Cc1cccc(C(F)(F)F)c1
Second: O=C(Cn1cnc2c(nnn2Cc2ccccc2F)c1=O)NCc1ccccc1
The “% Inhibition @ 10 uM” value of the first is lower: -1.75% for the first, -0.431% for the second.

Compared with `CC(C)(C)c1ccc(C(=O)Nc2cccc3ccccc23)cc1`, `Cc1cccc(NC(=O)c2cccc(C(=O)Nc3cccc(C)c3)c2)c1` is higher in “% Inhibition @ 10 uM” value: -3.66% for the first, 3.85% for the second.

Compared with `CC(=O)N(Cc1ccccc1)C(c1ccccc1)c1ccccc1`, `O=C(CN(Cc1ccccc1)S(=O)(=O)c1ccccc1)Nc1ccccc1C(F)(F)F` is lower in “% Inhibition @ 10 uM” value: 1.83% for the first, -2.63% for the second.

Going from `COc1ccc(C(CC(=O)O)NC(=O)c2ccccc2Cl)cc1OC` (centres unmarked) to `COc1ccccc1C(=O)Nc1cc(Cl)ccc1C(F)(F)F`, the “% Inhibition @ 10 uM” value rises from -3.27% to 3.67%.

First: COC(=O)c1ccc(CN2CCC(O)CC2)cc1
Second: CS(=O)(=O)N1CCCC(C(=O)NCCc2ccc(Cl)cc2)C1 (centres unmarked)
The “% Inhibition @ 10 uM” value of the first is higher: -1.78% for the first, -4.83% for the second.

Going from `Cc1ccc(NC(=O)C2CCN(S(=O)(=O)c3ccc4[nH]c5c(c4c3)CCCCC5)CC2)nc1` to `CC1CCN(S(=O)(=O)c2ccc(Cl)c(Cl)c2)CC1`, the “% Inhibition @ 10 uM” value falls from 1.67% to -0.414%.

Going from `CCN1CCN(C(=O)C2CCN(C(=O)c3cc4sccc4n3CC)CC2)CC1` to `CCN1CCN(C(=O)c2cnn(-c3ccccc3Cl)c2NC(=O)c2ccco2)CC1`, the “% Inhibition @ 10 uM” value falls from 1.8% to -4.86%.

Going from `O=C(CCNc1c(N2CCCC2)c(=O)c1=O)NCc1ccc(Cl)cc1` to `CCOC(=O)N1CCN(c2c(NC(C)(C)C)c(=O)c2=O)CC1`, the “% Inhibition @ 10 uM” value rises from -1.72% to 0.277%.

First: Cc1cccc(C(=O)NCCNC(=O)c2cccc(C)c2)c1
Second: CNC(=O)c1ccc2c(c1)c(C)c(C)n2Cc1cccc(C)c1
The “% Inhibition @ 10 uM” value of the first is lower: -4.71% for the first, -1.37% for the second.

Compared with `OCCSc1nc2ccccc2s1`, `COCCNC(=O)CSc1nc2ccccc2c(=O)n1-c1ccccc1` is higher in “% Inhibition @ 10 uM” value: -1.59% for the first, -1.27% for the second.

Compared with `O=C(c1cccs1)N1c2ccccc2C=Cc2ccccc21`, `O=C(c1ccc(C2SCC(=O)N2CCc2ccccc2)cc1)N1CCc2ccccc2C1` (centres unmarked) is higher in “% Inhibition @ 10 uM” value: 0.605% for the first, 8.44% for the second.

Compared with `CC1CC(C)CN(CCCNC(=O)Cn2ncn3cccc3c2=O)C1` (centres unmarked), `Cc1nn(CC(=O)N2CCN(C)CC2)c(=O)c2cccn12` is lower in “% Inhibition @ 10 uM” value: -3.34% for the first, -10.8% for the second.

Compared with `CCn1nc(C)c(/N=C/c2c(C)nn(-c3ccc(F)cc3)c2O)c1C`, `Cc1cc(C)n(-c2ccc3cccc(N)c3n2)n1` is lower in “% Inhibition @ 10 uM” value: 5.83% for the first, 1.57% for the second.

Compared with `COc1ccc2c(c1)c(C(C)=O)c(C)n2C`, `COc1ccc(OC)c(-c2cc(C(=O)NCc3cccnc3)no2)c1` is lower in “% Inhibition @ 10 uM” value: 1.67% for the first, -2.47% for the second.

Going from `Cc1ccc(CS(=O)Cc2ccc(C(=O)NCc3ccc4c(c3)OCO4)o2)cc1` (centres unmarked) to `Cc1ccccc1S(=O)Cc1ccc(C(=O)NC2CC2)o1` (centres unmarked), the “% Inhibition @ 10 uM” value falls from -1.28% to -3.61%.

Compared with `CCC(C)(c1nnnn1C(/C=C\c1ccc(Cl)cc1Cl)C(C)(C)C)N1CCOCC1` (centres unmarked), `OCCN1CCN(Cc2ccc(Cl)cc2Cl)CC1` is higher in “% Inhibition @ 10 uM” value: -5.38% for the first, 1.83% for the second.

Compared with `Cc1nc(NC(=O)c2ccc3c(c2)OCO3)sc1C`, `Cc1ccc(CS(=O)(=O)c2ncc(Cl)c(C(=O)Nc3nnc(C)s3)n2)cc1` is higher in “% Inhibition @ 10 uM” value: 0.751% for the first, 4% for the second.

Compared with `Cc1cc2c(n1-c1ccc(C(=O)N3CCN(C)CC3)cc1)CCC(C)C2` (centres unmarked), `CN1CCC(c2ccc3c(c2)SCc2ccccc2C3=O)CC1` is higher in “% Inhibition @ 10 uM” value: -3.05% for the first, -3.04% for the second.

Compared with `Cn1c2ccccc2c2nc3ccccc3nc21`, `C=C(C)c1ccccc1NC(=O)CCN1C(=O)c2ccccc2S1(=O)=O` is lower in “% Inhibition @ 10 uM” value: 1.41% for the first, -17% for the second.

Compared with `OC1(c2ccccc2)CCNC2CCCCC21` (centres unmarked), `CC1CCCC(NC(=O)Cn2nc(-c3ccccc3)ccc2=O)C1C` (centres unmarked) is higher in “% Inhibition @ 10 uM” value: 2.69% for the first, 3.79% for the second.

First: CN1CCN(c2c(N)c(=O)oc3ccccc23)CC1
Second: CCOc1ccc2oc(=O)cc(CN3CCN(C4CCCCC4)CC3)c2c1
The “% Inhibition @ 10 uM” value of the first is higher: 1.9% for the first, 0.00706% for the second.

Compared with `COc1ccccc1/C=C/c1nn2c(COc3ccccc3)nnc2s1`, `CCCOc1ccc(-c2nc3s/c(=C\c4ccccc4)c(=O)n3n2)cc1` is lower in “% Inhibition @ 10 uM” value: 20.6% for the first, 5.37% for the second.

First: C=CCCC(C)(O)C#CCN1CCOCC1 (centres unmarked)
Second: Cn1c(C(=O)N2CCOCC2)cc2sc(Cl)cc21
The “% Inhibition @ 10 uM” value of the first is higher: -2.51% for the first, -6.68% for the second.

Going from `O=C1C(Cl)=C(Nc2ccccc2)C(=O)N1Cc1ccccc1` to `O=C1CCN(Cc2ccccc2)C(=O)N1`, the “% Inhibition @ 10 uM” value rises from -0.305% to 2.09%.

First: Clc1ccc(Nc2nc(-c3ccc(-c4ccccc4)cc3)cs2)cc1
Second: CC[C@H](NC(=O)[C@H](CN(C)c1ccccc1)NC(=O)c1ccc(-c2ccccc2Cl)cc1)C(=O)c1nc2ccccc2o1
The “% Inhibition @ 10 uM” value of the first is lower: -7.99% for the first, -6.98% for the second.

First: CCN(CC)CCN(C(=O)c1ccco1)c1nc2ccc(C)cc2s1
Second: CCOc1ccc2nc(NC(=O)C(NS(=O)(=O)c3cccs3)C(C)C)sc2c1 (centres unmarked)
The “% Inhibition @ 10 uM” value of the first is higher: 0.233% for the first, -11.7% for the second.

Compared with `COc1cccc(C2=NOC(C(=O)NCc3ccccc3)C2)c1OC` (centres unmarked), `COc1ccc(CCNC(=O)CCNS(=O)(=O)c2cccc3nonc23)cc1OC` is lower in “% Inhibition @ 10 uM” value: 2.85% for the first, -2.04% for the second.

Compared with `CCc1ccc(C2C(C#N)=C(C)N=C3CC(c4ccc(Cl)cc4)CC(O)=C32)cc1` (centres unmarked), `N#CC1=C(N)Oc2cc(O)ccc2C1c1ccc(OCc2ccccc2Cl)cc1` (centres unmarked) is higher in “% Inhibition @ 10 uM” value: -2.2% for the first, -1.17% for the second.

Going from `O=C(CSc1n[nH]c2ncnn12)Nc1ccccn1` to `C1=C(c2cccnc2)Nc2ncnn2C1c1cccs1` (centres unmarked), the “% Inhibition @ 10 uM” value rises from -5.36% to -3.21%.

First: Cc1c2cnn(CC(=O)NC(C)c3ccccc3)c(=O)c2c(C)n1Cc1ccccc1F (centres unmarked)
Second: O=C(CSc1nc2ccccc2c(=O)n1-c1ccccc1)NCCCN1CCOCC1
The “% Inhibition @ 10 uM” value of the first is higher: 2.84% for the first, -10.8% for the second.

Compared with `O=C(CC1Sc2ccccc2NC1=O)NCc1ccco1` (centres unmarked), `CN(C)S(=O)(=O)n1cc(/C=C(\NC(=O)c2ccccc2)C(=O)NCc2ccco2)c2ccccc21` is higher in “% Inhibition @ 10 uM” value: -7.17% for the first, -0.0235% for the second.

First: Cc1ccc(S(=O)(=O)N(C)c2ccc(C(=O)N(C)C)cc2)cc1
Second: CCCNC(=O)CN(Cc1ccccc1C)S(=O)(=O)c1ccc(Cl)cc1
The “% Inhibition @ 10 uM” value of the first is higher: 2.22% for the first, -1.95% for the second.

Going from `S=C1NCCN1CCOc1ccccc1` to `CCc1cc2cccnc2n1S(=O)(=O)c1ccccc1`, the “% Inhibition @ 10 uM” value falls from -4.74% to -5.11%.

Compared with `CCC(Oc1ccccc1)C(=O)NCCc1ccc(S(N)(=O)=O)cc1` (centres unmarked), `Cc1ccc(CC/N=c2/c(-c3ccccc3)c(O)c2=O)cc1` is higher in “% Inhibition @ 10 uM” value: 0.161% for the first, 0.867% for the second.

Going from `CCCc1nnc2nc(O)cc(C)n12` to `Cc1ccc(CC(=O)Nc2nnc(CC(C)C)s2)cc1`, the “% Inhibition @ 10 uM” value rises from -5.33% to -1.17%.

Compared with `CS(=O)(=O)n1cnc2ccccc21`, `CS(=O)(=O)N(CC(=O)NCc1ccccc1Cl)c1ccc(Cl)cc1` is higher in “% Inhibition @ 10 uM” value: -2.99% for the first, -0.231% for the second.

Compared with `CC1=CC(C)C2C(=O)N(c3ccccc3)C(=O)C2C1` (centres unmarked), `Cc1ccc(NC(=O)CN2C(=O)c3ccccc3S2(=O)=O)cc1` is lower in “% Inhibition @ 10 uM” value: 5.37% for the first, 1.03% for the second.

Going from `O=C(NCCN1CCCCCC1)C1CCC(CNS(=O)(=O)c2cccc3nsnc23)CC1` (centres unmarked) to `CC1CCc2c(sc(NC(=O)C3CCCC3)c2C(N)=O)C1` (centres unmarked), the “% Inhibition @ 10 uM” value rises from -0.465% to 17.5%.

First: OCCN1CCN(c2ncnc3c2c(-c2ccccc2)cn3-c2ccc(F)cc2)CC1
Second: FC(F)(F)c1cccc(N2CCN(Cc3ccc(Cl)cc3Cl)CC2)c1
The “% Inhibition @ 10 uM” value of the first is higher: -0.928% for the first, -3.65% for the second.

Going from `Cc1ccc(NC(=O)CN2C(=O)S/C(=C\c3cccc(Cl)c3)C2=O)cc1` to `Cc1ccc(C(=O)NCc2ccncc2)c(Cl)c1`, the “% Inhibition @ 10 uM” value rises from -6.24% to -0.473%.

Going from `N#Cc1c(NC(=O)c2ccc(C(=O)O)cc2C(=O)O)sc2c1CCCC2` to `CC(C)C[C@H](NC(=O)c1ccc(-c2ccc(C#N)s2)cc1)C(=O)NCC#N`, the “% Inhibition @ 10 uM” value falls from 2.95% to 1.71%.

Going from `Cc1nn(CCCC(=O)N2CCOCC2)c(=O)c2c1sc1ccccc12` to `COc1ccc(C2=NS(=O)(=O)N(C)C(C(=O)N3CCOCC3)=C2)cc1OC`, the “% Inhibition @ 10 uM” value falls from -1.97% to -8.82%.

Compared with `O=C(COc1ccc(Cl)cc1)NC12CC3CC(CC(C3)C1)C2`, `C=CCOc1ccc(CNc2nccs2)cc1` is lower in “% Inhibition @ 10 uM” value: -1.96% for the first, -11.5% for the second.

Compared with `Cc1ccc(CNC(=O)c2cc(S(=O)(=O)N3CCOCC3)cn2C)o1`, `O=C1CCCN1c1ccc(S(=O)(=O)N2CCOCC2)cc1` is lower in “% Inhibition @ 10 uM” value: -6.98% for the first, -8.11% for the second.

First: O=C(O)C1C(C(=O)Nc2ccccc2F)C2C=CC1C21CC1 (centres unmarked)
Second: O=C(N/C(=C\c1cccnc1)C(=O)N1CCOCC1)c1cccc(Br)c1
The “% Inhibition @ 10 uM” value of the first is higher: 2.92% for the first, -5.79% for the second.

Compared with `N#Cc1ccc(-c2ccc(COCCCC(O)CO)cc2)cc1` (centres unmarked), `Cc1cc(C)cc(-n2c(C)cc(C=C3C(=O)NC(=O)NC3=O)c2C)c1` is higher in “% Inhibition @ 10 uM” value: 1.03% for the first, 10.7% for the second.

First: Cc1c(NC(=O)NC2CCCCC2C)sc2nc3n(c(=O)c12)CCC(C)CC3 (centres unmarked)
Second: CC(O)C#CCN1C(C)CCCC1C (centres unmarked)
The “% Inhibition @ 10 uM” value of the first is lower: 1.68% for the first, 2.58% for the second.

Source: article PMC6919601, “Identification of Plasmodium dipeptidyl aminopeptidase allosteric inhibitors by high throughput screening” (PLoS ONE, 2019)
